Data on 31 molecules can be found in PMC9911399, “Two distinct binding modes provide the RNA-binding protein RbFox with extraordinary sequence specificity”.

B1: ACUCUUA (DNA:RNA)
RNA: GGGAGACCGGAAUUCAGAUUGUCCACUCUUAUUAAAUCCCGUCGUAGCCACCA
DNA 1: CAATCTGAATTCCGGTCTCCC
DNA 2: TGGTGGCTACGACGGGATT
B2: GUAUCCG (DNA:RNA)
RNA: GGGAGACCGGAAUUCAGAUUGUCCGUAUCCGUUAAAUCCCGUCGUAGCCACCA
DNA 1: CAATCTGAATTCCGGTCTCCC
DNA 2: TGGTGGCTACGACGGGATT
B3: GAUGCUA (DNA:RNA)
RNA: B1 RNA with A25G, C26A, C28G, U29C
DNA 1: CAATCTGAATTCCGGTCTCCC
DNA 2: TGGTGGCTACGACGGGATT
B4: AGACGCA (DNA:RNA)
RNA: B1 RNA with C26G, U27A, U29G, U30C
DNA 1: CAATCTGAATTCCGGTCTCCC
DNA 2: TGGTGGCTACGACGGGATT
B5: CAACUAA (DNA:RNA)
RNA: B1 RNA with A25C, C26A, U27A, U30A
DNA 1: CAATCTGAATTCCGGTCTCCC
DNA 2: TGGTGGCTACGACGGGATT
B6: UAGCAUG (DNA:RNA)
RNA: B1 RNA with A25U, C26A, U27G, U29A, A31G
DNA 1: CAATCTGAATTCCGGTCTCCC
DNA 2: TGGTGGCTACGACGGGATT
B7: AGAGCAU (DNA:RNA)
RNA: B2 RNA with G25A, U26G, U28G, C30A, G31U
DNA 1: CAATCTGAATTCCGGTCTCCC
DNA 2: TGGTGGCTACGACGGGATT
B8: ACCGGCC (DNA:RNA)
RNA: B1 RNA with U27C, C28G, U29G, U30C, A31C
DNA 1: CAATCTGAATTCCGGTCTCCC
DNA 2: TGGTGGCTACGACGGGATT
B9: UGCUCGA (DNA:RNA)
RNA: B2 RNA with G25U, U26G, A27C, C30G, G31A
DNA 1: CAATCTGAATTCCGGTCTCCC
DNA 2: TGGTGGCTACGACGGGATT
B10: AUAGAAA (DNA:RNA)
RNA: B1 RNA with C26U, U27A, C28G, U29A, U30A
DNA 1: CAATCTGAATTCCGGTCTCCC
DNA 2: TGGTGGCTACGACGGGATT
B11: CAAGCUG (DNA:RNA)
RNA: B2 RNA with G25C, U26A, U28G, C30U
DNA 1: CAATCTGAATTCCGGTCTCCC
DNA 2: TGGTGGCTACGACGGGATT
B12: GCUGGAG (DNA:RNA)
RNA: B1 RNA with A25G, C28G, U29G, U30A, A31G
DNA 1: CAATCTGAATTCCGGTCTCCC
DNA 2: TGGTGGCTACGACGGGATT
B13: ACAGGAU (DNA:RNA)
RNA: B1 RNA with U27A, C28G, U29G, U30A, A31U
DNA 1: CAATCTGAATTCCGGTCTCCC
DNA 2: TGGTGGCTACGACGGGATT
B14: AAGGAAG (DNA:RNA)
RNA: B1 RNA with C26A, U27G, C28G, U29A, U30A, A31G
DNA 1: CAATCTGAATTCCGGTCTCCC
DNA 2: TGGTGGCTACGACGGGATT
B15: CUAAGUC (DNA:RNA)
RNA: B2 RNA with G25C, U28A, C29G, C30U, G31C
DNA 1: CAATCTGAATTCCGGTCTCCC
DNA 2: TGGTGGCTACGACGGGATT
B16: ACCGCUC (DNA:RNA)
RNA: B1 RNA with U27C, C28G, U29C, A31C
DNA 1: CAATCTGAATTCCGGTCTCCC
DNA 2: TGGTGGCTACGACGGGATT
B17: ACUUUUU (DNA:RNA)
RNA: B1 RNA with C28U, A31U
DNA 1: CAATCTGAATTCCGGTCTCCC
DNA 2: TGGTGGCTACGACGGGATT
B18: GACCUAU (DNA:RNA)
RNA: B1 RNA with A25G, C26A, U27C, U30A, A31U
DNA 1: CAATCTGAATTCCGGTCTCCC
DNA 2: TGGTGGCTACGACGGGATT
B19: UUAUAAC (DNA:RNA)
RNA: B2 RNA with G25U, C29A, C30A, G31C
DNA 1: CAATCTGAATTCCGGTCTCCC
DNA 2: TGGTGGCTACGACGGGATT
B20: CAGACCU (DNA:RNA)
RNA: B2 RNA with G25C, U26A, A27G, U28A, G31U
DNA 1: CAATCTGAATTCCGGTCTCCC
DNA 2: TGGTGGCTACGACGGGATT
B21: UUGACAA (DNA:RNA)
RNA: B2 RNA with G25U, A27G, U28A, C30A, G31A
DNA 1: CAATCTGAATTCCGGTCTCCC
DNA 2: TGGTGGCTACGACGGGATT
B22: GGCGAAC (DNA:RNA)
RNA: B2 RNA with U26G, A27C, U28G, C29A, C30A, G31C
DNA 1: CAATCTGAATTCCGGTCTCCC
DNA 2: TGGTGGCTACGACGGGATT
B23: CAUGGUU (DNA:RNA)
RNA: B1 RNA with A25C, C26A, C28G, U29G, A31U
DNA 1: CAATCTGAATTCCGGTCTCCC
DNA 2: TGGTGGCTACGACGGGATT
B24: ACACCGC (DNA:RNA)
RNA: B1 RNA with U27A, U29C, U30G, A31C
DNA 1: CAATCTGAATTCCGGTCTCCC
DNA 2: TGGTGGCTACGACGGGATT
B25: AGUAAGU (DNA:RNA)
RNA: B1 RNA with C26G, C28A, U29A, U30G, A31U
DNA 1: CAATCTGAATTCCGGTCTCCC
DNA 2: TGGTGGCTACGACGGGATT
B26: AAUUGAA (DNA:RNA)
RNA: B1 RNA with C26A, C28U, U29G, U30A
DNA 1: CAATCTGAATTCCGGTCTCCC
DNA 2: TGGTGGCTACGACGGGATT
B27: GAGACAC (DNA:RNA)
RNA: B2 RNA with U26A, A27G, U28A, C30A, G31C
DNA 1: CAATCTGAATTCCGGTCTCCC
DNA 2: TGGTGGCTACGACGGGATT
B28: GCCAUCG (DNA:RNA)
RNA: B2 RNA with U26C, A27C, U28A, C29U
DNA 1: CAATCTGAATTCCGGTCTCCC
DNA 2: TGGTGGCTACGACGGGATT
B29: UUUAAAA (DNA:RNA)
RNA: B1 RNA with A25U, C26U, C28A, U29A, U30A
DNA 1: CAATCTGAATTCCGGTCTCCC
DNA 2: TGGTGGCTACGACGGGATT
B30: GAACUAC (DNA:RNA)
RNA: B1 RNA with A25G, C26A, U27A, U30A, A31C
DNA 1: CAATCTGAATTCCGGTCTCCC
DNA 2: TGGTGGCTACGACGGGATT
B31: GAUGACC (DNA:RNA)
RNA: B2 RNA with U26A, A27U, U28G, C29A, G31C
DNA 1: CAATCTGAATTCCGGTCTCCC
DNA 2: TGGTGGCTACGACGGGATT

Where a chain is given by its changes, count along the chain named. This is one part of the list.

This test has as its target T1, RBFOX1 RRM (Homo sapiens, UniProt Q9NWB1 109-208).
T1 sequence: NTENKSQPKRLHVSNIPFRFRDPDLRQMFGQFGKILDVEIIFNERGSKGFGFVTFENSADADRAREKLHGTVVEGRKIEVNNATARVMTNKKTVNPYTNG
The experiment in a line: EMSA; HiTS-Eq, 1 nM pool, 10 min; buffer printed only for the single-RNA assays: 10 mM Tris pH 7.5, 150 mM NaCl, 3.4 mM EDTA, 0.001% NP-40, 30 C. The note with it: tags: His6 N-terminal (pET28a); label: 5' 32P. A digest of the protocol: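 A pool of RNA with 7 randomized nucleotides, 5′-radiolabelled and with DNA-annealed flanks, was equilibrated at 1 nM for 10 min in 50 µL with purified RbFox RRM, wild type or mutant, across increasing protein concentrations. Free RNA was separated by 8% native PAGE, excised, reverse-transcribed, barcoded by PCR and sequenced. Relative association constants were obtained from read-count changes of each RNA species versus the control reaction and normalised to the cognate motif.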
(In EMSA bound probe runs differently from free probe, usually more slowly.)
For B1, the binding signal was 0.00138 KA relative to UGCAUGU. Take B2: the binding signal is 0.00754 KA relative to UGCAUGU. Consider B3, for which the binding signal was 0.0174 KA relative to UGCAUGU. As for B4, the binding signal is 0.013 KA relative to UGCAUGU. On to B5, for which the binding signal is 0.000567 KA relative to UGCAUGU.

Consider B6, for which the binding signal is 0.795 KA relative to UGCAUGU. For B7, the binding signal was 0.00841 KA relative to UGCAUGU.

Consider B8, for which the binding signal was 0.00449 KA relative to UGCAUGU. Turning to B9, the binding signal is 0.0363 KA relative to UGCAUGU.

For the molecule B10, the binding signal was 0.00278 KA relative to UGCAUGU. Then B11, with 0.00668 KA relative to UGCAUGU; and B12, with 0.0123 KA relative to UGCAUGU; and B13, with 0.00648 KA relative to UGCAUGU.

For the molecule B14, the binding signal was 0.00984 KA relative to UGCAUGU.

With B15, the binding signal was 0.00496 KA relative to UGCAUGU. For B16, the binding signal is 0.00293 KA relative to UGCAUGU. As for B17, the binding signal is 0.00519 KA relative to UGCAUGU. In the case of B18, the binding signal is 0.0038 KA relative to UGCAUGU. For the molecule B19, the binding signal is 0.00364 KA relative to UGCAUGU. Turning to B20, the binding signal was 0.00272 KA relative to UGCAUGU.

In the case of B21, the binding signal was 0.00852 KA relative to UGCAUGU.

Take B22: the binding signal was 0.0211 KA relative to UGCAUGU. For B23, the binding signal is 0.0143 KA relative to UGCAUGU. Turning to B24, the binding signal is 0.000714 KA relative to UGCAUGU. B25: the binding signal is 0.00858 KA relative to UGCAUGU.

B26: the binding signal was 0.0108 KA relative to UGCAUGU. Take B27: the binding signal is 0.00951 KA relative to UGCAUGU. Take B28: the binding signal is 0.0111 KA relative to UGCAUGU. For the molecule B29, the binding signal is 0.00108 KA relative to UGCAUGU. Turning to B30, the binding signal was 0.00432 KA relative to UGCAUGU.

Regarding B31, the binding signal was 0.00916 KA relative to UGCAUGU.
